# Results as given in PubChem BioAssay AID1508642 (National Center for Advancing Translational Sciences (NCATS), 2021).
# In all, about 43,000 compounds went through this assay and about 200 (0.47%) were called active. About 12% were inconclusive and are not listed. Calls follow the shape of the dose curve; as a rule, active = well fitted cell-killing curve with a large enough effect; inconclusive = small, poorly fitted or top-dose-only effect, or effect the other way; inactive = flat fitted curve, though single readings scatter. The list shows a part of the results.
# Assay: Cell viability qHTS assay in S16 Pmp22-F2sN cells; also: nearly all actives have a fitted effect of over 65% in size
# Conditions: S16 Pmp22-F2sN Schwann cells (luciferase reporters placed in the Pmp22 gene) viability, CellTiter-Glo, 24 h; series mostly up to 57.5 µM; activity change, negative = cytotoxicity: at the top concentration
# Outline: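 CellTiter-Glo counter-screen, qHTS, 1536-well. Cells: S16(c9) Pmp22-F2sN, 500-1,000/well in DMEM + 10% FBS. Cpd 23 nL pin transfer, 24 h, 37C/5% CO2. Read: luminescence, CCD imager.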
# % is scaled to controls: 0 for no effect and ±100 for the full control effect.
row,Structure (SMILES),"activity change, negative = cytotoxicity"
1,Cc1nc2c(cnn2-c2ccccc2Cl)c(=O)n1-c1ccc(C(C)C)cc1,inactive: 0.572%
2,COc1cc(NC(=O)Cn2ncc3c(=O)oc4ccccc4c32)cc(OC)c1OC,inactive: 6.65%
3,CN(C)S(=O)(=O)N(CC(=O)NCCSCc1ccccc1Cl)c1ccccc1,inactive: -9.54%
4,COc1cccc(-c2nc(SCC(=O)Nc3ccc4c(c3)OCO4)c(-c3ccccc3)[nH]2)c1,inactive: -28.3%
5,CCCc1noc(-c2ccc(N3CCCCC3)c([N+](=O)[O-])c2)n1,inactive: 21%
6,COc1ccc(CCn2cc3c(c2-c2ccccc2Br)c(=O)n(C)c(=O)n3C)cc1OC,inactive: -14.8%
7,Cc1cccc(N2CCN(S(=O)(=O)c3cc(Br)cc4c3N(C(=O)C3CC3)CC4)CC2C)c1 (stereo not given),inactive: 10.4%
8,Cc1ccc(S(=O)(=O)Nc2cc3c(cc2C)n(C)c(=O)c(=O)n3C)cc1,inactive: 9.91%
9,COc1ccc(-c2noc(-c3ccc(NCc4ccc(C)cc4)c([N+](=O)[O-])c3)n2)cc1OC,inactive: 7.42%
10,Cc1ccccc1NC(=O)CSc1nc(-c2ccc(F)cc2)c2cccc(C)c2n1,inactive: 2.22%
11,COc1ccc(-n2nc(C(=O)N3CCC(C)CC3)c3c4ccccc4n(C)c3c2=O)cc1Cl,inactive: 0.68%
12,O=C(Cn1c(=O)n(-c2ccc(F)cc2)c(=O)c2sc3ccccc3c21)N1CCCC1,inactive: 21.7%
13,Cc1cc(NC(=O)N2CC=C(c3c[nH]c4ccccc34)CC2)ccc1Br,inactive: -13.5%
14,Cn1nc(C(=O)NCc2ccccc2)c2c1-c1ccccc1SC2,inactive: -3.87%
15,CCOC(=O)c1sc2ccccc2c1S(=O)(=O)Nc1c(C)cccc1C,inactive: -0.84%
16,Cc1ccc(CSC2=Nc3ccccc3C3=NC(CCC(=O)N4CCN(c5ccccc5)CC4)C(=O)N23)cc1 (stereo not given),inactive: -18.8%
17,CCOC(=O)c1c(N)n(-c2ccc(C)c(C)c2)c2nc3ccccc3nc12,inactive: 6.83%
18,Cc1cc(C)c(NC(=O)Cn2nc3c(cc2=O)CCCC3)c(C)c1,inactive: -10.6%
19,COCCCN1C(=O)N(c2ccccc2)C(=O)C1CC(=O)Nc1ccc(F)cc1 (stereo not given),inactive: -11.4%
20,O=C(Nc1ccc(S(=O)(=O)Nc2ccccc2)cc1)N1CCCC1,inactive: -7.9%
21,COc1ccccc1NC(=O)N1CC(=O)Nc2sc3c(c2C1c1ccccc1)CCCC3 (stereo not given),inactive: 13.7%
22,CCOc1ccc(CC(=O)Nc2c(C(=O)c3ccc(F)cc3)oc3ccccc23)cc1OCC,inactive: 7.78%
23,CCOC(=O)c1c(C)oc2nc(C)nc(Nc3cccc(OC)c3)c12,inactive: 5.77%
24,COC(=O)c1ccc(C2Nc3c(C)cc(C)cc3C3C=CCC32)cc1 (stereo not given),inactive: 9.68%

row,Structure (SMILES),"activity change, negative = cytotoxicity"
1,Cc1ccccc1CSc1cn(CCNC(=O)c2cccs2)c2ccccc12,inactive: -15.4%
2,COc1ccc(C(CNC(=O)COc2ccc(C)c(C)c2)N2CCCCC2)cc1 (stereo not given),inactive: 1.12%
3,CCC(O)c1nc2ccccc2n1Cc1cccc(Cl)c1 (stereo not given),inactive: 0.486%
4,CCOc1ccc(CNC(=O)C2CCN(S(=O)(=O)c3c(C)noc3/C=C/c3ccc(C)cc3)CC2)cc1OC,inactive: 4.89%
5,Cc1c(CNCc2ccc(Cl)cc2)c(C(=O)O)c(C)n1Cc1ccc(F)cc1,inactive: -5.89%
6,CCOc1ccc(CNS(=O)(=O)c2ccc3[nH]c4c(c3c2)CCCC4)cc1OC,inactive: -21.5%
7,COc1ccc(NC(=O)CSc2nc3nc(C)cc(C)n3n2)cc1,inactive: 2.77%
8,CC(=O)Nc1ccc(NC(=O)CC2Sc3ccccc3NC2=O)cc1 (stereo not given),inactive: -6.37%
9,Cc1ccc(Cl)cc1N1CCN(C(=O)c2cc(S(=O)(=O)N3CCC(C)CC3)cn2C)CC1,inactive: -0.459%
10,COc1cccc(CNC(=O)CCc2nnc3n(C)c(=O)c4sccc4n23)c1,inactive: -2.52%
11,CCCN(CCC)CCCNC(=O)C1CCC(CNS(=O)(=O)c2ccc(NC(C)=O)cc2)CC1 (stereo not given),inactive: 10.5%
12,COc1ccc(NC(=O)Cn2c(CCC(=O)O)ccc2-c2ccccc2)cc1Cl,inactive: 0.698%
13,COc1ccc(CNC(=O)Cn2ccc3cc(S(=O)(=O)N4CCCCCC4)ccc32)cc1OC,inactive: -23.3%
14,COc1cccc(-c2cn3c(n2)sc2cc(C(=O)NCc4cccs4)ccc23)c1,inactive: -1.46%
15,COc1ccc2oc(=O)cc(CN3CCN(C(=O)c4ccccc4F)CC3)c2c1,inactive: -12.6%
16,CCS(=O)(=O)N1CCc2cc(C(=O)N3CCN(c4cccc(C(F)(F)F)c4)CC3)ccc21,inactive: -13.4%
17,Cc1ccc(NC(=O)C(=O)NCC(c2cccnc2)N2CCOCC2)cc1C (stereo not given),inactive: 1.74%
18,CCc1ccc(OC(=O)CSc2nnc(-c3ccc4c(c3)OCO4)o2)cc1,inactive: 2.61%
19,CCn1c(CN2CCC(C)CC2)nc2cc(NC(=O)c3ccccc3[N+](=O)[O-])ccc21,inactive: 9.35%
20,Cc1ccc(C)c(Cn2c(=O)c3c(nc4n3CCN4c3ccc(F)cc3)n(C)c2=O)c1,inactive: 6.37%
21,CCOC(=O)c1c(C)[nH]c(CCC(=O)NCCCN2CCN(c3cccc(Cl)c3)CC2)c1C,inactive: -25.5%
22,CCOc1ccc(-n2c(Cc3ccccc3)nnc2SCc2nc(-c3ccccc3C)no2)cc1,inactive: 9.72%
23,CC(=O)NCCNC(=O)CCCc1nnc2n(CCC(C)C)c(=O)c3sccc3n12,inactive: 3.04%
24,Fc1cccc(-c2nc(-c3ccncc3)no2)c1,inactive: -1.8%

row,Structure (SMILES),"activity change, negative = cytotoxicity"
1,Cc1ccc(C(=O)c2oc3ccccc3c2NC(=O)c2cc(=O)c3ccccc3o2)cc1,inactive: 5.24%
2,CCOCCCNC(=O)C(c1ccc(OC)cc1)N(Cc1cccs1)C(=O)c1ccc(NC(C)=O)cc1 (stereo not given),inactive: -13.6%
3,Cn1c(=O)oc2cc(S(=O)(=O)CCC(=O)NCc3ccccc3)ccc21,inactive: 5.11%
4,CCOc1ccc(N2CC(c3nc(-c4cc(OC)c(OC)c(OC)c4)no3)CC2=O)cc1 (stereo not given),inactive: 4.74%
5,CCOc1ccc(N(C)S(=O)(=O)c2ccc3c(c2)C(C)(C)C(=O)N3C)cc1,inactive: 2.79%
6,Cc1ccc(C)c(NC(=O)C2CCCN(S(=O)(=O)c3c(C)noc3/C=C/N(C)C)C2)c1 (stereo not given),inactive: 3.06%
7,CCOC(=O)c1c(C)oc2nc(C)nc(NCC3CCN(Cc4ccc(Cl)cc4)CC3)c12,inactive: 21%
8,CC(=O)OCC#CCSc1nnc(-c2cccc(Br)c2)o1,inactive: 10.2%
9,CCN(c1ccccc1)S(=O)(=O)c1nnc(NC(=O)COc2ccc(OC)cc2)s1,inactive: 2.46%
10,COCCNC(=O)C1CCN(S(=O)(=O)c2ccc3c(c2)CCCN3C(C)=O)CC1,inactive: 1.51%
11,CCOC(=O)c1[nH]c(C)c(CCC(=O)N2CCN(c3ccccc3)CC2)c1C,inactive: -1.6%
12,COc1ccc(-c2nc3n(n2)C(c2ccc(OC)cc2)C(C(=O)Nc2cccnc2)=C(C)N3)cc1 (stereo not given),inactive: 22.4%
13,COc1cccc(N2CC(NC(=O)c3ccc(S(=O)(=O)N4CCCC4)cc3)CC2=O)c1 (stereo not given),inactive: -1.93%
14,O=C(NC1CCCC1)c1c[nH]c2ccc(S(=O)(=O)Nc3cccc(C(F)(F)F)c3)cc2c1=O,inactive: 12.8%
15,Cc1ccc(-c2noc(COc3ccc(Br)c(C)c3)n2)cc1,inactive: -8.26%
16,O=C(C1CCC(CNS(=O)(=O)c2ccc(Br)s2)CC1)N1CCN(c2ccccc2)CC1 (stereo not given),inactive: -1.83%
17,Clc1cccc(CNc2ncnc3c2nc2n3CCCC2)c1,inactive: 1.74%
18,Cc1nnc(SCc2cc(=O)n3c(C)cccc3n2)s1,inactive: -7.4%
19,COc1ccc(-n2ncc3c(N4CCN(c5cccc(C)c5)C(C)C4)ncnc32)cc1 (stereo not given),inactive: 38.6%
20,O=C(Cn1c(=O)n(Cc2ccc3c(c2)OCO3)c(=O)c2ccccc21)Nc1cccc(Cl)c1,inactive: 13.2%
21,Cc1c(C(=O)N2CCCC2)oc2c1-c1nn(CC(=O)NCc3cccc(Br)c3)cc1CC2,inactive: -26.2%
22,NS(=O)(=O)c1ccc(NC(=O)CCn2c(=O)oc3ccccc32)cc1,inactive: 6.66%
23,COc1ccc(Cl)cc1NC(=O)CCc1nc(-c2ccccc2F)no1,inactive: -19.7%
24,COc1ccccc1CNC(=O)C(Cc1ccccc1)NS(=O)(=O)c1ccc2c(c1)oc(=O)n2C (stereo not given),inactive: -16.1%

row,Structure (SMILES),"activity change, negative = cytotoxicity"
1,CCOC(=O)c1cccc(NC(=O)CSc2ncc3c(n2)-c2ccccc2N(C)S3(=O)=O)c1,inactive: 3.07%
2,Cc1nn(Cc2noc(C(=O)NCc3ccc(F)cc3)n2)c(C)c1Br,inactive: 1.34%
3,O=C(NCCc1ccccc1)c1ccc2c(c1)N(Cc1ccccc1Cl)C(=O)c1ccccc1S2,inactive: 16.7%
4,COc1ccc(-c2nc3scc(CCNS(=O)(=O)c4ccc(F)cc4F)n3n2)cc1OC,inactive: 9.61%
5,CCc1nnc(NC(=O)CSc2nc3c([nH]c4ccccc43)c(=O)n2-c2cc(C)cc(C)c2)s1,inactive: 1.4%
6,O=C1CC(c2nc3ccccc3n2CCCCOc2ccccc2)CN1c1ccccc1Cl (stereo not given),inactive: -24.2%
7,COc1ccc(CC(=O)Nc2nc3c(s2)CC(C(C)(C)C)CC3)cc1 (stereo not given),inactive: 21.9%
8,Cc1ccccc1CNC(=O)C(C)n1nc(C)n2c(cc3occc32)c1=O (stereo not given),inactive: 12.2%
9,Cc1ccc(-c2nc3c(c(SCC(=O)N4CCCCC4)n2)Cc2cc(C)ccc2O3)cc1,inactive: 0.417%
10,CCn1c(CNC(=O)c2ccc(OC)cc2)nnc1SCC(=O)Nc1ccc(OC)cc1,inactive: 8.77%
11,Cc1ccc(-n2c(=O)c3c(c4cc(C)ccc4n3C)n(CC(=O)NCc3ccccc3Cl)c2=O)cc1,inactive: 23.1%
12,O=C(NCc1ccccc1Br)c1ccc2nc(N3CCCCC3)sc2c1,inactive: 9.94%
13,CCCCN(CCCC)C(=O)CN(C)S(=O)(=O)c1ccc2c(c1)c(=O)n(C)c(=O)n2C,inactive: -23.7%
14,CC(Nc1ccc(-c2nc(-c3ccncc3)no2)cc1[N+](=O)[O-])c1ccccc1 (stereo not given),inactive: 7.02%
15,Cc1cc(C)cc(N2CC(c3nc(-c4ccccc4C)no3)CC2=O)c1 (stereo not given),inactive: -9.86%
16,CC(=O)Nc1c(C)nn(-c2ccccc2)c1N1CCC(C(=O)NCc2ccc(Cl)cc2)CC1,inactive: 6.41%
17,Cc1cccc(NC(=O)Cn2c(=O)n(-c3ccccc3Cl)c(=O)c3c(C)c(C(=O)N(C)C)sc32)c1,inactive: 2.95%
18,CCOC(=O)c1ccc(NC(=O)CN(c2ccc(C)cc2)S(=O)(=O)c2c(C)noc2C)cc1,inactive: -6.19%
19,Cc1nc2c(C(=O)NCCc3ccc(Cl)cc3)cnn2c(C)c1Cc1c(F)cccc1Cl,inactive: 16.7%
20,CCOC(=O)c1ccc(CN(Cc2ccccc2)S(=O)(=O)c2ccc(C)cc2)cc1,inactive: 5.26%
21,COc1ccc(CCC(=O)NC2CC(=O)N(c3ccc(C)cc3)C2)cc1 (stereo not given),inactive: 2.14%
22,CCCCNC(=O)C(CC)Sc1nnc(-c2cccc(F)c2)c(-c2cccc(F)c2)n1 (stereo not given),inactive: 0.939%
23,Cc1cccc(C(=O)Nc2ccc(-c3nc4ccccc4s3)cc2Cl)c1,inactive: 8.14%
